{"source": "the supplement of paper PMC8728848", "binders": {"B1": {"name": "SBD-G4S3-SBD (protein)", "chain": "MASIPSSASVQLDSYNYDGSTFSGKIYVKNIAYSKKVTVVYADGSDNWNNNGNIIAASFSGPISGSNYEYWTFSASVKGIKEFYIKYEVSGKTYYDNNNSANYQVSTGGGGSGGGGSGGGGSEFASIPSSASVQLDSYNYDGSTFSGKIYVKNIAYSKKVTVVYADGSDNWNNNGNIIAASFSGPISGSNYEYWTFSASVKGIKEFYIKYEVSGKTYYDNNNSANYQVST"}}, "experiment_in_all_cases": "glycan array binding signal (z-score within array); higher = stronger binding", "details_in_all_cases": "glycan notation: IUPAC condensed, linker removed", "key": {"[1]": {"biological_target": "Fuc(a1-2)Gal(b1-4)GlcNAc(b1-3)Gal(b1-4)GlcNAc(b1-3)Gal(b1-4)GlcNAc", "summary_of_the_method": "(§1)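 The binding signal is a Z-score computed within each array. Data were drawn from 3228 arrays in the Consortium for Functional Glycomics database, restricted to those with a known protein sequence. Scores were averaged over arrays of the same protein sequence at different concentrations or buffers, and over linkers, and negative values can be taken as non-binding.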"}, "[2]": {"biological_target": "Fuc(a1-2)Gal(b1-4)GlcNAc(b1-3)GalNAc", "summary_of_the_method": "as §1"}, "[3]": {"biological_target": "Fuc(a1-2)Gal(b1-4)GlcNAc(b1-3)[Fuc(a1-2)Gal(b1-4)GlcNAc(b1-6)]GalNAc", "summary_of_the_method": "as §1"}, "[4]": {"biological_target": "Fuc(a1-2)Gal(b1-4)GlcNAc(b1-3)[Fuc(a1-3)[Gal(b1-4)]GlcNAc(b1-6)]Gal(b1-4)Glc", "summary_of_the_method": "as §1"}, "[5]": {"biological_target": "Fuc(a1-2)Gal(b1-4)GlcNAc(b1-6)GalNAc", "summary_of_the_method": "as §1"}, "[6]": {"biological_target": "Fuc(a1-2)Gal(b1-4)GlcNAc6S", "summary_of_the_method": "as §1"}, "[7]": {"biological_target": "Fuc(a1-2)Gal(b1-4)[Fuc(a1-3)]GlcNAc", "summary_of_the_method": "as §1"}, "[8]": {"biological_target": "Fuc(a1-2)Gal(b1-4)[Fuc(a1-3)]GlcNAc(b1-2)Man(a1-3)[Fuc(a1-2)Gal(b1-4)[Fuc(a1-3)]GlcNAc(b1-2)Man(a1-6)]Man(b1-4)GlcNAc(b1-4)[Fuc(a1-6)]GlcNAc", "summary_of_the_method": "as §1"}, "[9]": {"biological_target": "Fuc(a1-2)Gal(b1-4)[Fuc(a1-3)]GlcNAc(b1-2)[Fuc(a1-2)Gal(b1-4)[Fuc(a1-3)]GlcNAc(b1-4)]Man(a1-3)[Fuc(a1-2)Gal(b1-4)[Fuc(a1-3)]GlcNAc(b1-2)Man(a1-6)]Man(b1-4)GlcNAc(b1-4)GlcNAc", "summary_of_the_method": "as §1"}, "[10]": {"biological_target": "Fuc(a1-2)Gal(b1-4)[Fuc(a1-3)]GlcNAc(b1-3)Gal(b1-4)[Fuc(a1-3)]GlcNAc", "summary_of_the_method": "as §1"}, "[11]": {"biological_target": "Fuc(a1-2)Gal(b1-4)[Fuc(a1-3)]GlcNAc(b1-3)Gal(b1-4)[Fuc(a1-3)]GlcNAc(b1-3)Gal(b1-4)[Fuc(a1-3)]GlcNAc", "summary_of_the_method": "as §1"}, "[12]": {"biological_target": "Fuc(a1-2)Gal(b1-4)[Fuc(a1-3)]GlcNAc(b1-3)GalNAc", "summary_of_the_method": "as §1"}, "[13]": {"biological_target": "Fuc(a1-2)Gal(b1-4)[Fuc(a1-3)]GlcNAc(b1-3)[Neu5Ac(a2-6)Gal(b1-4)GlcNAc(b1-6)]Gal(b1-4)Glc", "summary_of_the_method": "as §1"}, "[14]": {"biological_target": "Fuc(a1-2)Gal3S(b1-4)GlcNAc", "summary_of_the_method": "as §1"}, "[15]": {"biological_target": "Fuc(a1-2)Gal6S(b1-3)GlcNAc", "summary_of_the_method": "as §1"}, "[16]": {"biological_target": "Fuc(a1-2)Gal6S(b1-3)GlcNAc6S", "summary_of_the_method": "as §1"}, "Fuc(a1-2)Gal6S(b1-4)Glc": {"biological_target": "Fuc(a1-2)Gal6S(b1-4)Glc", "summary_of_the_method": "as §1"}, "[17]": {"biological_target": "Fuc(a1-2)Gal6S(b1-4)Glc6S", "summary_of_the_method": "as §1"}, "Fuc(a1-2)[Gal(a1-3)]Gal": {"biological_target": "Fuc(a1-2)[Gal(a1-3)]Gal", "summary_of_the_method": "as §1"}, "[18]": {"biological_target": "Fuc(a1-2)[Gal(a1-3)]Gal(b1-3)GalNAc", "summary_of_the_method": "as §1"}, "[19]": {"biological_target": "Fuc(a1-2)[Gal(a1-3)]Gal(b1-3)GalNAc(b1-3)Gal(a1-4)Gal(b1-4)Glc", "summary_of_the_method": "as §1"}, "[20]": {"biological_target": "Fuc(a1-2)[Gal(a1-3)]Gal(b1-3)GlcNAc", "summary_of_the_method": "as §1"}, "[21]": {"biological_target": "Fuc(a1-2)[Gal(a1-3)]Gal(b1-3)GlcNAc(b1-2)Man(a1-3)[Fuc(a1-2)[Gal(a1-3)]Gal(b1-3)GlcNAc(b1-2)Man(a1-6)]Man(b1-4)GlcNAc(b1-4)GlcNAc", "summary_of_the_method": "as §1"}, "[22]": {"biological_target": "Fuc(a1-2)[Gal(a1-3)]Gal(b1-3)GlcNAc(b1-2)Man(a1-3)[Fuc(a1-2)[Gal(a1-3)]Gal(b1-3)GlcNAc(b1-2)Man(a1-6)]Man(b1-4)GlcNAc(b1-4)[Fuc(a1-6)]GlcNAc", "summary_of_the_method": "as §1"}, "[23]": {"biological_target": "Fuc(a1-2)[Gal(a1-3)]Gal(b1-3)GlcNAc(b1-3)GalNAc", "summary_of_the_method": "as §1"}, "[24]": {"biological_target": "Fuc(a1-2)[Gal(a1-3)]Gal(b1-3)GlcNAc(b1-6)GalNAc", "summary_of_the_method": "as §1"}, "[25]": {"biological_target": "Fuc(a1-2)[Gal(a1-3)]Gal(b1-4)Glc", "summary_of_the_method": "as §1"}, "[26]": {"biological_target": "Fuc(a1-2)[Gal(a1-3)]Gal(b1-4)GlcNAc", "summary_of_the_method": "as §1"}, "[27]": {"biological_target": "Fuc(a1-2)[Gal(a1-3)]Gal(b1-4)GlcNAc(b1-2)Man", "summary_of_the_method": "as §1"}, "[28]": {"biological_target": "Fuc(a1-2)[Gal(a1-3)]Gal(b1-4)GlcNAc(b1-2)Man(a1-3)[Fuc(a1-2)[Gal(a1-3)]Gal(b1-4)GlcNAc(b1-2)Man(a1-6)]Man(b1-4)GlcNAc(b1-4)GlcNAc", "summary_of_the_method": "as §1"}}, "note": "The other results are listed elsewhere or left out."}
{"binder": "B1", "values": [{"measurement": "glycan array binding signal (z-score)", "setting": "[1]", "result": -0.414}, {"measurement": "glycan array binding signal (z-score)", "setting": "[2]", "result": -0.363}, {"measurement": "glycan array binding signal (z-score)", "setting": "[3]", "result": -0.317}, {"measurement": "glycan array binding signal (z-score)", "setting": "[4]", "result": -0.371}, {"measurement": "glycan array binding signal (z-score)", "setting": "[5]", "result": 0.607}, {"measurement": "glycan array binding signal (z-score)", "setting": "[6]", "result": -0.349}, {"measurement": "glycan array binding signal (z-score)", "setting": "[7]", "result": -0.383}, {"measurement": "glycan array binding signal (z-score)", "setting": "[8]", "result": 0.018}, {"measurement": "glycan array binding signal (z-score)", "setting": "[9]", "result": 0.699}, {"measurement": "glycan array binding signal (z-score)", "setting": "[10]", "result": -0.363}, {"measurement": "glycan array binding signal (z-score)", "setting": "[11]", "result": -0.314}, {"measurement": "glycan array binding signal (z-score)", "setting": "[12]", "result": 0.867}, {"measurement": "glycan array binding signal (z-score)", "setting": "[13]", "result": -0.41}, {"measurement": "glycan array binding signal (z-score)", "setting": "[14]", "result": -0.4}, {"measurement": "glycan array binding signal (z-score)", "setting": "[15]", "result": -0.408}, {"measurement": "glycan array binding signal (z-score)", "setting": "[16]", "result": -0.245}, {"measurement": "glycan array binding signal (z-score)", "setting": "Fuc(a1-2)Gal6S(b1-4)Glc", "result": -0.378}, {"measurement": "glycan array binding signal (z-score)", "setting": "[17]", "result": -0.389}, {"measurement": "glycan array binding signal (z-score)", "setting": "Fuc(a1-2)[Gal(a1-3)]Gal", "result": -0.356}, {"measurement": "glycan array binding signal (z-score)", "setting": "[18]", "result": -0.379}, {"measurement": "glycan array binding signal (z-score)", "setting": "[19]", "result": -0.327}, {"measurement": "glycan array binding signal (z-score)", "setting": "[20]", "result": -0.291}, {"measurement": "glycan array binding signal (z-score)", "setting": "[21]", "result": -0.381}, {"measurement": "glycan array binding signal (z-score)", "setting": "[22]", "result": -0.314}, {"measurement": "glycan array binding signal (z-score)", "setting": "[23]", "result": -0.334}, {"measurement": "glycan array binding signal (z-score)", "setting": "[24]", "result": -0.322}, {"measurement": "glycan array binding signal (z-score)", "setting": "[25]", "result": -0.3}, {"measurement": "glycan array binding signal (z-score)", "setting": "[26]", "result": -0.393}, {"measurement": "glycan array binding signal (z-score)", "setting": "[27]", "result": -0.356}, {"measurement": "glycan array binding signal (z-score)", "setting": "[28]", "result": 1.24}]}
